Measurements published in patent publication US20260199502A1, “BINDING MOLECULE” (priority 2022, published 2026).

B1: SP031: bispecific conjugate, anti-CD40 antibody A9 HC linked to mouse scFv (SEQ ID NO:57) with LC SEQ ID NO:58 (antibody)
heavy: EVQLLESGGGLVQPGGSLRLSCAASGFTFSSYAMSWVRQAPGKGLEWVSGISGYSGSTYYADSVKGRFTISRDNSKNTLYLQMNSLRAEDTAVYYCARYYSYYGYYYFDYWGQGTLVTVSSASTKGPSVFPLAPCSRSTSESTAALGCLVKDYFPEPVTVSWNSGALTSGVHTFPAVLQSSGLYSLSSVVTVPSSNFGTQTYTCNVDHKPSNTKVDKTVERKCCVECPPCPAPPVAGPSVFLFPPKPKDTLMISRTPEVTCVVVDVSHEDPEVQFNWYVDGVEVHNAKTKPREEQFNSTFRVVSVLTVVHQDWLNGKEYKCKVSNKGLPAPIEKTISKTKGQPREPQVYTLPPSREEMTKNQVSLTCLVKGFYPSDIAVEWESNGQPENNYKTTPPMLDSDGSFFLYSKLTVDKSRWQQGNVFSCSVMHEALHNHYTQKSLSLSPGKGGGGSGGGGSEVRLLQSGAALVRPGASVKLSCTASGFNIKDFNIHWVKQRPEQGLEWIGRIDPENGDAEYVPKFQVRATMTTDTSSNTVYLHLSSLTSGDTAVYYCTTGSYDLDVEYWGQGTTLTVSSGGGGSGGGGSGGGGSGGGGSELQMTQSPSSLSASLGDTVTITCHASQNINVWLSWYQQRPGNIPKLLIYKASTLHTGVPSRFRGSGSGTGFTLTISSLQPEDIATYYCQQGQSYPLTFGAGTKLELK
light: DIQMTQSPSSLSASVGDRVTITCRASQSISSYLNWYQQKPGKAPKLLIYAASSLQSGVPSRFSGSGSGTDFTLTISSLQPEDFATYYCQQGYPYPFTFGQGTKLEIKRTVAAPSVFIFPPSDEQLKSGTASVVCLLNNFYPREAKVQWKVDNALQSGNSQESVTEQDSKDSTYSLSSTLTLSKADYEKHKVYACEVTHQGLSSPVTKSFNRGEC
modifications: A9 heavy chain without entry
B2: SP027: bispecific conjugate, anti-CD40 Ab HC linked to humanized scFv (SEQ ID NO:60) with LC SEQ ID NO:61 (antibody)
heavy: EVQLLESGGGLVQPGGSLRLSCAASGFTFSSYAMSWVRQAPGKGLEWVSGISGYSGSTYYADSVKGRFTISRDNSKNTLYLQMNSLRAEDTAVYYCARYYSYYGYYYFDYWGQGTLVTVSSASTKGPSVFPLAPCSRSTSESTAALGCLVKDYFPEPVTVSWNSGALTSGVHTFPAVLQSSGLYSLSSVVTVPSSNFGTQTYTCNVDHKPSNTKVDKTVERKCCVECPPCPAPPVAGPSVFLFPPKPKDTLMISRTPEVTCVVVDVSHEDPEVQFNWYVDGVEVHNAKTKPREEQFNSTFRVVSVLTVVHQDWLNGKEYKCKVSNKGLPAPIEKTISKTKGQPREPQVYTLPPSREEMTKNQVSLTCLVKGFYPSDIAVEWESNGQPENNYKTTPPMLDSDGSFFLYSKLTVDKSRWQQGNVFSCSVMHEALHNHYTQKSLSLSPGKGGGGSGGGGSQVQLVQSGAEVKKPGASVKVSCKASGFNIKDFNIHWVRQAPGQGLEWIGRIDPESGDAEYVPKFQGRVTMTRDTSTSTVYMELSSLRSEDTAVYYCTTGSYDLDVEYWGQGTLVTVSSGGGGSGGGGSGGGGSGGGGSDIQMTQSPSSLSASVGDRVTITCHASQNINVWLSWYQQKPGKAPKLLIYKASTLHTGVPSRFSGSGSGTDFTLTISSLQPEDFATYYCQQGQSYPLTFGQGTKLEIK
light: B1 light with S53F
B3: SP007: bispecific conjugate, anti-CD40 Ab HC linked to humanized scFv (SEQ ID NO:59) with LC SEQ ID NO:58 (antibody)
heavy: B2 heavy with S512N
light: B1 light
B4: SP019: bispecific conjugate, anti-CD40 Ab HC linked to humanized scFv (SEQ ID NO:60) with LC SEQ ID NO:58 (antibody)
heavy: B2 heavy
light: B1 light

Assay: Monomeric content of purified conjugates by size exclusion chromatography
Assay type: physicochemical
Conditions: for Monomeric content: SEC after Protein A affinity purification, ExpiCHO-S expression
Description: The expressed conjugates were purified by Protein A affinity chromatography on an ÄktaSTART system using mAbSelect SuRe columns (GE Healthcare, #11003493). A 20 mM sodium phosphate, 0.15 M sodium chloride (pH 7.3) buffer was used as binding and wash buffer, 0.1 M glycine (pH 2.5) as elution buffer and 1M Tris-HCl (pH 8.5) as neutralization buffer.
In total, 25 μg of the respective conjugate in 100 μl were injected onto a Superdex Increase 200 10/30 GL gel filtration column (GE Healthcare, #28989336) coupled to an Agilent 1200 series HPLC system. SEC runs were performed at a 0.5 ml/min flow rate with PBS as a running buffer. Proteins were detected by an online 280 nm absorption measurement. Data analysis and peak integrations were performed using GraphPad Prism 8.0.

| Molecule | Monomeric content [%] | smaller, non-native population of lower molecular species (SEC after affinity purification, share of the total sample) [%] |
| --- | --- | --- |
| B1 | 85.3 | 14.7 |
| B2 | 95.6 |  |
| B3 | 95.0 |  |
| B4 | 99.2 |  |

Changes are numbered by the printed parent chain.
